Measurements as given in PMC4336329 (PLoS ONE, 2015).
About 14,000 (4.5%) of roughly 310,000 compounds showed an effect of 50% or more. Effects have a minus sign here. The list shows a part of the results.

Biological target: human ether-à-go-go-related gene (hERG) potassium channel (human, UniProt Q12809)
Experiment: primary screen, population patch clamp on CHO cells stably expressing hERG
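Note: peak tail current of the secondary pulse compared with the same well before compound.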

Chain of human ether-à-go-go-related gene (hERG) potassium channel (Q12809 whole entry, looked up): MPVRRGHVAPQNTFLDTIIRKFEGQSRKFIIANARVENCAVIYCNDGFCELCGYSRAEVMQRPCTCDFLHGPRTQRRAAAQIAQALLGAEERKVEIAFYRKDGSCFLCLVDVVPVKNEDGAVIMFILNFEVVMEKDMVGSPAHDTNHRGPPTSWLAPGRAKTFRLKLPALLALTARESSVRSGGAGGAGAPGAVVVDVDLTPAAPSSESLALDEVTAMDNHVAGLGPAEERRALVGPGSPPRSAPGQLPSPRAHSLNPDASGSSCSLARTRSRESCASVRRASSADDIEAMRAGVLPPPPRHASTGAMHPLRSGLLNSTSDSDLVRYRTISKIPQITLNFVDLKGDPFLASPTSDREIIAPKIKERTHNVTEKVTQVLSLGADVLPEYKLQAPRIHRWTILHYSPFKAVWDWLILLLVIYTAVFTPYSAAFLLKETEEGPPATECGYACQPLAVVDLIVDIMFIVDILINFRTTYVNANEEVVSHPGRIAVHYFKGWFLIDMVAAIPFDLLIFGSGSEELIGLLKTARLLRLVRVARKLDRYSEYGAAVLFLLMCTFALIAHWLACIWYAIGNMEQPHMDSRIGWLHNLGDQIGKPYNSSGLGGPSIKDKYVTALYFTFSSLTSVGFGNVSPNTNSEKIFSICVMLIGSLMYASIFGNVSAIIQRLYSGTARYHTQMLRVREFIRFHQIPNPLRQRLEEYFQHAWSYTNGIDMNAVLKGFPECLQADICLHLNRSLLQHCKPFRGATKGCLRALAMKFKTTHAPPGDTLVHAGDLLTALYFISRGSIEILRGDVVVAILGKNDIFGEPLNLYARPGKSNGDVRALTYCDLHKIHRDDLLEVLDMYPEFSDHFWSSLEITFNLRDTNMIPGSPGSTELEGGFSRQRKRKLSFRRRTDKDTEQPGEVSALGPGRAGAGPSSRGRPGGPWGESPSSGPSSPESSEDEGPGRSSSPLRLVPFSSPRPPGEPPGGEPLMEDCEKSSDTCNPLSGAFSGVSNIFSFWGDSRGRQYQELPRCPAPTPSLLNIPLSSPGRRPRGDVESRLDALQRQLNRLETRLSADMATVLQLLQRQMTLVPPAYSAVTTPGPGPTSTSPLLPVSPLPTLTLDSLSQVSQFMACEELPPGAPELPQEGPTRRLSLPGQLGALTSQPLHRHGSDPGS

Question: `Cc1cc(C)nc(NS(=O)(=O)c2ccc(NC(=O)COc3ccccc3F)cc2)n1` was tested. Which “hERG current change (%, negative = inhibition) at 10uM” value did it give?
Answer: Its value is 4.9%.

Question: How did the “hERG current change (%, negative = inhibition) at 10uM” value turn out when `Nc1nsnc1C(=O)NCCO` was run?
Answer: The value was 14.7%.

Question: With `CCOC(=O)c1ccc(S(=O)(=O)N2CCN(C(C)=O)CC2)cc1` as the compound, how does the “hERG current change (%, negative = inhibition) at 10uM” value read?
Answer: The value was 0.122%.

Question: Which “hERG current change (%, negative = inhibition) at 10uM” value does the source give for `COc1cccc(CNC(=O)c2cccc(NC(=O)CC3SC(N4CCCCC4)=NC3=O)c2)c1` (stereo not drawn) here?
Answer: The value was -1.28%.

Question: With `N#Cc1c(N2CCCC2)nc(N)c2c(N)nc(N3CCCC3)cc12` as the compound, how does the “hERG current change (%, negative = inhibition) at 10uM” value read?
Answer: Its value is 11.2%.

Question: Which “hERG current change (%, negative = inhibition) at 10uM” value does the source give for `Cc1ccc(C(=O)O/N=C(\N)Cc2ccc([N+](=O)[O-])cc2)c(Cl)c1` here?
Answer: Its value is -46.3%.

Question: For `CN(C)c1ccc2c(c1)OC(N)=C(C#N)C2c1cccc(F)c1` (stereo not drawn), which “hERG current change (%, negative = inhibition) at 10uM” value is on record?
Answer: The value was 6.95%.

Question: `COc1ccc(N/N=C(/Oc2ccc([N+](=O)[O-])cc2)C(C)=O)cc1` was tested. Which “hERG current change (%, negative = inhibition) at 10uM” value did it give?
Answer: The value was -12.7%.

Question: For `O=C(O)CSCC(=O)N1CCCN(c2ccc(C(F)(F)F)cn2)CC1`, which “hERG current change (%, negative = inhibition) at 10uM” value is on record?
Answer: The value was 22.9%.

Question: With `COc1ccc(CNC2c3ccccc3-c3ccccc32)cc1OC` as the compound, how does the “hERG current change (%, negative = inhibition) at 10uM” value read?
Answer: The value was -36.2%.

Question: How did the “hERG current change (%, negative = inhibition) at 10uM” value turn out when `O=[N+]([O-])c1cccc(-c2cc3ccccc3[nH]2)c1` was run?
Answer: The value was 18.7%.

Question: How did the “hERG current change (%, negative = inhibition) at 10uM” value turn out when `Cc1ccc([N+](=O)[O-])c(OCC(O)CNC(C)(C)C)c1.Cl` (stereo not drawn) was run?
Answer: The value was 3.01%.

Question: Which “hERG current change (%, negative = inhibition) at 10uM” value does the source give for `O=C(/C=C/c1ccco1)NCc1ccco1` here?
Answer: Its value is 18.5%.

Question: Which “hERG current change (%, negative = inhibition) at 10uM” value does the source give for `N#Cc1ccc(/C=C(\C(=O)C(=O)O)c2ccc3ccccc3n2)cc1` here?
Answer: Its value is -7.34%.

Question: How did the “hERG current change (%, negative = inhibition) at 10uM” value turn out when `O=C(/C=C/N1CCOCC1)c1coc2ccccc12` was run?
Answer: Its value is 1.11%.

Question: `Cc1ccc(NC(=O)CN2C(=O)C3CC=CCC3C2=O)cc1S(=O)(=O)N1CCOCC1` (stereo not drawn) was tested. Which “hERG current change (%, negative = inhibition) at 10uM” value did it give?
Answer: Its value is 5.84%.

Question: Which “hERG current change (%, negative = inhibition) at 10uM” value does the source give for `CCn1cc(CNC(=O)c2cc(COc3ccc(F)cc3Cl)on2)cn1` here?
Answer: Its value is -11.1%.

Question: For `COc1cccc(N2CCN(C3CC(=O)N(c4ccc(F)c(Cl)c4)C3=O)CC2)c1` (stereo not drawn), which “hERG current change (%, negative = inhibition) at 10uM” value is on record?
Answer: Its value is -12.6%.

Question: `Cc1ccccc1OCC(=O)OCC(=O)NCc1ccccc1` was tested. Which “hERG current change (%, negative = inhibition) at 10uM” value did it give?
Answer: Its value is 8.83%.

Question: How did the “hERG current change (%, negative = inhibition) at 10uM” value turn out when `O=C(C1CC(c2ccccc2O)=NO1)N1CCCCC1` (stereo not drawn) was run?
Answer: The value was 12.6%.

Question: How did the “hERG current change (%, negative = inhibition) at 10uM” value turn out when `Cc1ccc(C(=O)Nn2cnnc2)cc1` was run?
Answer: Its value is 10.8%.

Question: With `COc1ccc(NC(=O)C2CCCN(S(=O)(=O)c3ccc4[nH]c(=O)ccc4c3)C2)cc1OC` (stereo not drawn) as the compound, how does the “hERG current change (%, negative = inhibition) at 10uM” value read?
Answer: The value was 16.6%.

Question: How did the “hERG current change (%, negative = inhibition) at 10uM” value turn out when `COc1ccc(CCNC(=O)Cn2cccc2C(=O)c2ccccc2C)cc1OC` was run?
Answer: The value was -16.3%.

Question: With `Cc1c(O)nc(SC2CC(=O)N(c3cc(Cl)cc(Cl)c3)C2=O)[nH]c1=O` (stereo not drawn) as the compound, how does the “hERG current change (%, negative = inhibition) at 10uM” value read?
Answer: Its value is 17%.

Question: `COc1cc(C2SCC(=O)N2Cc2ccccc2)ccc1O` (stereo not drawn) was tested. Which “hERG current change (%, negative = inhibition) at 10uM” value did it give?
Answer: The value was 1.41%.

Question: How did the “hERG current change (%, negative = inhibition) at 10uM” value turn out when `O=C1CCCC/C1=C/NCc1ccccc1` was run?
Answer: The value was 16.7%.

Question: Which “hERG current change (%, negative = inhibition) at 10uM” value does the source give for `O=C(C1CCC(CNS(=O)(=O)c2ccccc2)CC1)N1CCCCC1` (stereo not drawn) here?
Answer: Its value is -1.89%.

Question: Which “hERG current change (%, negative = inhibition) at 10uM” value does the source give for `CCc1ccc(CN(C)CC(=O)Nc2sccc2C#N)cc1` here?
Answer: Its value is -16.4%.

Question: How did the “hERG current change (%, negative = inhibition) at 10uM” value turn out when `Cc1ccc(-c2nc(CS(=O)CC(=O)N3CCC4(CC3)OCCO4)c(C)o2)cc1` (stereo not drawn) was run?
Answer: The value was -4.68%.

Question: `CCOc1ccc(/C=N/N2C(C)CCCC2C)cc1OC` (stereo not drawn) was tested. Which “hERG current change (%, negative = inhibition) at 10uM” value did it give?
Answer: Its value is -3.11%.

Question: For `Cc1ccc(-c2nnn(CC(=O)N(CCO)C(C(=O)NC3CCCCC3)c3ccncc3)n2)o1` (stereo not drawn), which “hERG current change (%, negative = inhibition) at 10uM” value is on record?
Answer: The value was 13.9%.

Question: With `CCOc1ccc(C(=O)OCCN(CC)CC)cc1.Cl` as the compound, how does the “hERG current change (%, negative = inhibition) at 10uM” value read?
Answer: The value was -44.8%.

Question: Which “hERG current change (%, negative = inhibition) at 10uM” value does the source give for `O=C(COC(=O)c1ccc(Br)o1)NCc1cccs1` here?
Answer: The value was -4.11%.

Question: For `CCC1(c2ccc(F)cc2)NC(=O)N(CC(=O)NCc2ccc(F)cc2)C1=O` (stereo not drawn), which “hERG current change (%, negative = inhibition) at 10uM” value is on record?
Answer: Its value is -14%.

Question: `CN(c1c[nH]c(=O)[nH]c1=O)C1CCCCC1` was tested. Which “hERG current change (%, negative = inhibition) at 10uM” value did it give?
Answer: The value was 36.5%.

Question: Which “hERG current change (%, negative = inhibition) at 10uM” value does the source give for `CNS(=O)(=O)c1ccc(NC(=O)c2cncc(Br)c2)cc1` here?
Answer: Its value is 12.1%.

Question: How did the “hERG current change (%, negative = inhibition) at 10uM” value turn out when `c1ccc(-c2nc(-c3ccco3)n3ccccc23)cc1` was run?
Answer: The value was 10.3%.

Question: Which “hERG current change (%, negative = inhibition) at 10uM” value does the source give for `CS(=O)(=O)N1CCN(C(=O)CCC2CCCC2)CC1` here?
Answer: The value was 14.1%.

Question: How did the “hERG current change (%, negative = inhibition) at 10uM” value turn out when `O=C(CN1C(=O)/C(=C2\SC(=S)N(CCS(=O)(=O)O)C2=O)c2ccccc21)Nc1cccc(Br)c1` was run?
Answer: The value was -73.1%.

Question: For `COC(=O)c1ccc(NC(=O)Nc2ccccc2F)cc1`, which “hERG current change (%, negative = inhibition) at 10uM” value is on record?
Answer: The value was 17%.

Question: How did the “hERG current change (%, negative = inhibition) at 10uM” value turn out when `O=[N+]([O-])c1cccc(N/N=C/c2cccc(O)c2O)c1` was run?
Answer: Its value is 16.7%.

Question: For `C=CCNC(=O)CC1Nc2c3ccccc3nc(=S)n2C1=O` (stereo not drawn), which “hERG current change (%, negative = inhibition) at 10uM” value is on record?
Answer: The value was 14.7%.

Question: How did the “hERG current change (%, negative = inhibition) at 10uM” value turn out when `NC(=O)CC(NC(=O)c1ccc(Br)cc1)c1ccc(NCc2ccc(F)cc2)c([N+](=O)[O-])c1` (stereo not drawn) was run?
Answer: The value was -1.49%.

Question: With `COCC(=O)NCCc1nc2ccccc2[nH]1` as the compound, how does the “hERG current change (%, negative = inhibition) at 10uM” value read?
Answer: Its value is 2.06%.

Question: How did the “hERG current change (%, negative = inhibition) at 10uM” value turn out when `O=C(Nc1ccc(N2CCOCC2)c(Cl)c1)c1ccc(S(=O)(=O)N2CCOCC2)cc1` was run?
Answer: The value was -25.7%.
